The supplement of paper PMC12340641
Over roughly 1,000 compounds, “relative growth in counter assay (no AraC = 100%, AraC + DMSO = 0%)” has its median near -1.1; the highest 2% begin near 20. This is one part of the list.

test system: HEK293FT dCK*-only; assay: relative growth in counter assay (no AraC = 100%, AraC + DMSO = 0%); higher = more growth rescue independent of IKZF1; details: compound concentration: 5 uM; AraC concentration: 0.3 uM; overnight pretreatment + 4 days AraC
Description: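 Growth recovery screen of the molecular-glue-like (Specs) library. HEK293FT cells expressing a dCK*-IKZF1 fusion (primary) or dCK* alone (counter) were pretreated overnight with compound at 5 uM, then given 0.3 uM AraC for 4 days. Hoechst nuclei were counted by imaging. Primary: normalised to pomalidomide (100%) and DMSO (0%), mean of 2 replicates. Counter: normalised to no-AraC (100%) and AraC+DMSO (0%), single replicate.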

Row | Compound | relative growth in counter assay [%]
1 | O=C(Nc1ccc(S(=O)(=O)Nc2ncccn2)cc1)c1ccc([N+](=O)[O-])cc1 | -6.83
2 | COc1ccc(-c2csc(Nc3ccc(S(=O)(=O)Nc4nc(C)cc(C)n4)cc3)n2)cc1 | -6.81
3 | CCCCc1cnc(Nc2cccc(C3CCN(C(=O)C(C)(C)NC(=O)OC(C)(C)C)CC3)n2)s1 | -22
4 | Cc1cnc(Nc2cccc(C3CN(C(=O)C4CC4c4ccc(Cl)cc4)CCO3)n2)s1 (stereo not given) | 28.7
5 | COc1ccccc1N1C(=O)c2ccc(Oc3ccc(N)cc3)cc2C1=O | 11.9
6 | NC(=O)CN1CCCC1c1csc(Nc2ccccn2)n1 (stereo not given) | -5.04
7 | COc1ccc(C(C)(C)C(=O)N2CCCC2c2cccc(Nc3nc(C)cs3)n2)cc1 (stereo not given) | 11
8 | Cc1ccnc(NS(=O)(=O)c2ccc(NC(=O)C3c4ccccc4Oc4ccccc43)cc2)n1 | -3.45
9 | CCCc1cnc(Nc2cccc(C3CCN(C(=O)C4CCCCN4CCCO)CC3)n2)s1 (stereo not given) | -21.2
10 | COCCNC(=O)C1(c2cccc(Nc3ncc(C)s3)n2)CCN(C(=O)C2CCCCC2)CC1 | -2.36
11 | Cc1csc(Nc2cccc(C3CN(C(=O)COc4c(C)cccc4C)CCO3)n2)n1 (stereo not given) | 1.27
12 | Cc1ccc(C)c2c1[nH]c1nc(SCC(=O)Nc3cccc(F)c3)nnc12 | 6.13
13 | Cc1ccc(Nc2nc(C3CCCN(CC(N)=O)C3)cs2)nc1 (stereo not given) | 3.7
14 | COc1ccc(CCC(=O)N2CCOC(c3cccc(Nc4nc(C)cs4)n3)C2)cc1 (stereo not given) | 19.5
15 | CC(=O)Nc1ccc(Oc2ccc3c(c2)C(=O)N(c2ccc4ccccc4c2)C3=O)cc1 | -7.95
16 | Cc1cnc(Nc2cccc(CC3CCN(C(=O)c4cccc(Cl)c4)CC3)n2)s1 | -18.2
17 | COc1ccccc1CCC(=O)N1CCC(c2cccc(Nc3ncc(C)s3)n2)CC1 | 10.2
18 | Cc1cc(C)nc(NS(=O)(=O)c2ccc(Nc3nc(-c4c(C)nc5ccccn45)cs3)cc2)n1 | -0.5
19 | CCOc1ccccc1C(=O)Nc1ccc(S(=O)(=O)Nc2nc(C)cc(C)n2)cc1 | 1.48
20 | Cc1nc(Nc2cccc(C3CCCN3C(=O)COc3ccc(F)cc3)n2)sc1C (stereo not given) | -0.52
21 | O=C(Nc1ccc(S(=O)(=O)Nc2ncccn2)cc1)c1cncc(Br)c1 | 12.3
22 | CC(C)(C)N1CC(C(=O)Nc2ccc(S(=O)(=O)Nc3ncccn3)cc2)CC1=O (stereo not given) | 4.79
23 | COC(=O)C(c1cccc(Nc2ncc(C)s2)n1)C1CCN(C(=O)c2cccc(F)c2F)CC1 (stereo not given) | -3.23
24 | CCCOc1cccc(C(=O)Nc2ccc(S(=O)(=O)Nc3nc(C)cc(C)n3)cc2)c1 | 8.01

Row | Compound | relative growth in counter assay [%]
25 | O=C(COc1cccc(Cl)c1)Nc1ccc(S(=O)(=O)Nc2ccccn2)cc1 | -2.69
26 | Cc1ccc(C(=O)Nc2ccc(S(=O)(=O)Nc3ccccn3)cc2)cc1C | 0.61
27 | COc1cc(NS(=O)(=O)c2ccc(NC(=O)COc3ccccc3C)cc2)nc(OC)n1 | -13.3
28 | CC(=O)Oc1ccccc1N1C(=O)c2ccc(Oc3ccc(N)cc3)cc2C1=O | -0.98
29 | Cc1nc(Nc2cccc(C3CCN(C(=O)C(C)C)CC3)n2)sc1C | 15.4
30 | O=C1CCC(N2C(=O)c3cccc(N4CCC(C(=O)O)CC4)c3C2=O)C(=O)N1 (stereo not given) | 3.86
31 | CC(=O)Nc1ccc(S(=O)(=O)N(C#N)c2nc(C)cc(C)n2)cc1 | 5.8
32 | Cc1nc(Nc2cccc(C3CCCN3C(=O)CCN3C(=O)CCNC3=O)n2)sc1C (stereo not given) | -8.82
33 | O=[N+]([O-])c1ccc(S(=O)(=O)Nc2nc3ccccc3nc2Nc2ccccc2)cc1 | 8.01
34 | Cc1csc(Nc2cccc(C3CN(C(=O)Cn4nc(C)ccc4=O)CCO3)n2)n1 (stereo not given) | -2.02
35 | CCCc1cnc(Nc2cccc(C3CCN(C(=O)[C@@H]4CCCCN4C(=O)OC(C)(C)C)CC3)n2)s1 | -19.7
36 | Cc1cc(C)c2[nH]c3nc(SCC(=O)Nc4cc(Cl)ccc4C)nnc3c2c1 | 0.85
37 | Cc1ccc2[nH]c3nc(SCC(=O)Nc4cccc(Cl)c4)nnc3c2c1 | -1.34
38 | O=C(Cc1ccc(F)cc1)N1CCCC1c1cccc(Nc2nccs2)n1 (stereo not given) | 6.68
39 | CC(=O)Nc1cc(C)c(S(=O)(=O)N2CCOC(c3cccc(Nc4ncc(C)s4)n3)C2)cc1C (stereo not given) | 10.9
40 | O=C(C1CCCCC1)N1CCC(c2cccc(Nc3ncc(Cl)s3)n2)CC1 | -5.45
41 | C[C@@H](N)C(=O)N1CCC(CO)(c2cccc(Nc3ncc(-c4ccccc4)s3)n2)CC1 | -21.8
42 | Cc1cc(C)nc(NS(=O)(=O)c2ccc(NC(=O)CSc3nccn3C)cc2)n1 | 2.1
43 | Cc1nc(Nc2cccc(C3CCCN3C(=O)CCc3nc4ccccc4[nH]3)n2)sc1C (stereo not given) | 7.88
44 | O=S(=O)(Nc1ccc(S(=O)(=O)Nc2ncccn2)cc1)c1ccccc1 | -2.05
45 | Cc1ccc(CCC(=O)Nc2ccc(S(=O)(=O)Nc3ncccn3)cc2)cc1 | 8.72
46 | Nc1ccc(Oc2ccc3c(c2)C(=O)N(c2ccccc2)C3=O)cc1 | -1.56
47 | O=C(/C=C/c1ccccc1)N1CCCC1c1csc(Nc2ccccn2)n1 (stereo not given) | -3.28
48 | CC(C)(C)C(=O)N1CCOC(c2cccc(Nc3ncc(Cc4ccccc4)s3)n2)C1 (stereo not given) | -3.84

Row | Compound | relative growth in counter assay [%]
49 | CN(C)C(=O)CN1CCC(c2csc(Nc3ccccn3)n2)CC1 | 7.74
50 | CC(C)(C)C(=O)Nc1ccc(S(=O)(=O)Nc2ccccn2)cc1 | -5.56
51 | COc1cc(NS(=O)(=O)c2ccc(NC(=O)c3ccc(-c4ccccc4)cc3)cc2)nc(OC)n1 | -2.97
52 | CC1CCN(C(=O)CN2CCC(c3cccc(Nc4nccs4)n3)CC2)CC1 | -0.36
53 | Cc1ccnc(NS(=O)(=O)c2ccc(NC(=O)CSc3nc(C)cc(=O)[nH]3)cc2)n1 | -2.62
54 | CC(=O)N1CCC(Cc2cccc(Nc3nc(C)cs3)n2)CC1 | 24.3
55 | Cc1cnc(Nc2cccc(C3CN(C(=O)CCc4ccc(S(N)(=O)=O)cc4)CCO3)n2)s1 (stereo not given) | 6.65
56 | CCOCc1ccc(C(=O)N2CCOC(c3cccc(Nc4nccs4)n3)C2)cc1 (stereo not given) | 2.54
57 | Cc1cnc(Nc2cccc(C3CN(C(=O)C4(c5ccccc5)CCCC4)CCO3)n2)s1 (stereo not given) | 6.63
58 | CC(C)CC(C(=O)Nc1ccc(S(=O)(=O)Nc2ccccn2)cc1)N1C(=O)c2ccccc2C1=O (stereo not given) | 0.21
59 | CC1Cc2cc(CCC(=O)N3CCC(c4cccc(Nc5nccs5)n4)CC3)ccc2O1 (stereo not given) | 9.65
60 | Nc1ccc(S(=O)(=O)Nc2nccc(/C=C/c3ccc(Cl)cc3)n2)cc1 | 4.07
61 | Cc1cnc(Nc2cccc(C3(COC(=O)C4CCCCC4)CCN(C(=O)C4CCCCC4)CC3)n2)s1 | 2.81
62 | CCCC(=O)Nc1ccc(S(=O)(=O)Nc2nc(C)cc(C)n2)cc1 | -9.14
63 | CCCc1cnc(Nc2cccc(C3CCN(C(=O)C(C)(C)NC(=O)OC(C)(C)C)CC3)n2)s1 | -22.3
64 | Cc1csc(Nc2cccc(C3CCCN3C(=O)Cc3ccc(F)cc3)n2)n1 (stereo not given) | 10.1
65 | O=C(COc1ccc(Cl)cc1Cl)Nc1ccc(S(=O)(=O)Nc2ncccn2)cc1 | 7.22
66 | CCc1nnsc1C(=O)N1CCCC1c1cccc(Nc2nc(C)cs2)n1 (stereo not given) | -0.34
67 | Cc1cnc(Nc2cccc(C3CCN(C(=O)C4(C)CCCCC4)CC3)n2)s1 | -13.2
68 | COc1ccc(Cl)cc1NC(=O)CSc1nnc2c(n1)[nH]c1ccc(F)cc12 | 5.27
69 | CCCc1cnc(Nc2cccc(C3CCN(C(=O)C(C)(C)NC(=O)COC)CC3)n2)s1 | -2.68
70 | Cc1ccc(CC(=O)N2CCOC(c3cccc(Nc4nc(C)c(C)s4)n3)C2)cc1C (stereo not given) | 17
71 | O=C(CSc1nnc2c(n1)[nH]c1ccccc12)Nc1ccc(F)cc1 | 15.9
72 | Cc1cnc(Nc2cccc(C3CN(C(=O)CNc4ccccc4)CCO3)n2)s1 (stereo not given) | -19

Row | Compound | relative growth in counter assay [%]
73 | Cc1ccc(Oc2cccc(N3C(=O)c4ccc(Oc5ccc(N)cc5)cc4C3=O)c2)cc1C | -3.99
74 | Cc1ccc(C)c(OCC(=O)Nc2ccc(S(=O)(=O)Nc3ncccn3)cc2)c1 | -22.7
75 | CC(=O)Oc1cccc(N2C(=O)c3ccc(Oc4cccc(N)c4)cc3C2=O)c1 | -1.77
76 | Cc1ccc2[nH]c3nc(SCC(=O)Nc4ccc(C)c(Cl)c4)nnc3c2c1 | -28.4
77 | COC(=O)c1ccc(N2C(=O)c3ccc(Oc4cccc(N)c4)cc3C2=O)cc1 | 2.68
78 | Cc1noc(CCC(=O)N2CCOC(c3cccc(Nc4nc(C)c(C)s4)n3)C2)n1 (stereo not given) | 5.54
79 | Cc1ccc(OCCCC(=O)Nc2ccc(S(=O)(=O)Nc3ccccn3)cc2)cc1 | 6.85
80 | Cc1cccc(Nc2nc(-c3sc(NC(=O)c4ccccc4)nc3C)cs2)n1 | 60.5
81 | O=C(Nc1ccc(S(=O)(=O)Nc2ncccn2)cc1)C1CC(=O)N(c2ccc(Cl)cc2)C1 (stereo not given) | 2.5
82 | Cc1cnc(Nc2cccc(C3CCN(C(=O)C4(N)CCCCC4)CC3)n2)s1 | -25.1
83 | Cc1ccc(C(=O)Nc2ccc(S(=O)(=O)Nc3cc(C)nc(C)n3)cc2)cc1 | -2.2
84 | CC1(C)C=C(CC(=O)N2CCOC(c3cccc(Nc4nccs4)n3)C2)CC(C)(C)N1 (stereo not given) | 6.81
85 | Cc1cnc(Nc2cc(C3CCN(C(=O)/C=C/c4cnc[nH]4)CC3)ccn2)s1 | -11.5
86 | COCCOCC(=O)Nc1ccc(S(=O)(=O)Nc2nc(C)cc(C)n2)cc1 | -9.08
87 | Cc1cc(OCC(=O)Nc2ccc(S(=O)(=O)Nc3ncccn3)cc2)ccc1C(C)C | 15.9
88 | CCN(CC)C(=O)CN1CCC(c2cccc(Nc3nccs3)n2)CC1 | 2.7
89 | Cc1ccn2cc(C(=O)N3CCCC3c3cccc(Nc4nc(C)c(C)s4)n3)nc2c1 (stereo not given) | 17.6
90 | O=C(c1cccc2cccnc12)N1CCCC1c1cccc(Nc2nccs2)n1 (stereo not given) | -1.15
91 | Cc1ccc(S(=O)(=O)Nc2ccc(S(=O)(=O)Nc3ncccn3)cc2)cc1 | 3.78
92 | Cc1ccnc(NS(=O)(=O)c2ccc(NC(=O)COc3ccc(Cl)cc3)cc2)n1 | 4.78
93 | Cc1cnc(Nc2cccc(C3CCN(C(=O)C4CCC(=O)N4)CC3)n2)s1 (stereo not given) | -24.6
94 | Cc1cccc(OCCCC(=O)Nc2ccc(S(=O)(=O)Nc3ncccn3)cc2)c1 | 1.93
95 | Cc1ccc(CC(=O)Nc2ccc(S(=O)(=O)Nc3ncccn3)cc2)cc1 | -18.2
